The whole screen tested about 310,000 compounds, of which about 14,000 (4.5%) showed an effect of 50% or more. Effects have a minus sign here. The list shows a part of the results.
Target: human ether-à-go-go-related gene (hERG) potassium channel (human, UniProt Q12809)
Assay: primary screen, population patch clamp on CHO cells stably expressing hERG
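Note: peak tail current of the secondary pulse compared with the same well before compound.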

human ether-à-go-go-related gene (hERG) potassium channel, sequence (Q12809 whole entry, looked up): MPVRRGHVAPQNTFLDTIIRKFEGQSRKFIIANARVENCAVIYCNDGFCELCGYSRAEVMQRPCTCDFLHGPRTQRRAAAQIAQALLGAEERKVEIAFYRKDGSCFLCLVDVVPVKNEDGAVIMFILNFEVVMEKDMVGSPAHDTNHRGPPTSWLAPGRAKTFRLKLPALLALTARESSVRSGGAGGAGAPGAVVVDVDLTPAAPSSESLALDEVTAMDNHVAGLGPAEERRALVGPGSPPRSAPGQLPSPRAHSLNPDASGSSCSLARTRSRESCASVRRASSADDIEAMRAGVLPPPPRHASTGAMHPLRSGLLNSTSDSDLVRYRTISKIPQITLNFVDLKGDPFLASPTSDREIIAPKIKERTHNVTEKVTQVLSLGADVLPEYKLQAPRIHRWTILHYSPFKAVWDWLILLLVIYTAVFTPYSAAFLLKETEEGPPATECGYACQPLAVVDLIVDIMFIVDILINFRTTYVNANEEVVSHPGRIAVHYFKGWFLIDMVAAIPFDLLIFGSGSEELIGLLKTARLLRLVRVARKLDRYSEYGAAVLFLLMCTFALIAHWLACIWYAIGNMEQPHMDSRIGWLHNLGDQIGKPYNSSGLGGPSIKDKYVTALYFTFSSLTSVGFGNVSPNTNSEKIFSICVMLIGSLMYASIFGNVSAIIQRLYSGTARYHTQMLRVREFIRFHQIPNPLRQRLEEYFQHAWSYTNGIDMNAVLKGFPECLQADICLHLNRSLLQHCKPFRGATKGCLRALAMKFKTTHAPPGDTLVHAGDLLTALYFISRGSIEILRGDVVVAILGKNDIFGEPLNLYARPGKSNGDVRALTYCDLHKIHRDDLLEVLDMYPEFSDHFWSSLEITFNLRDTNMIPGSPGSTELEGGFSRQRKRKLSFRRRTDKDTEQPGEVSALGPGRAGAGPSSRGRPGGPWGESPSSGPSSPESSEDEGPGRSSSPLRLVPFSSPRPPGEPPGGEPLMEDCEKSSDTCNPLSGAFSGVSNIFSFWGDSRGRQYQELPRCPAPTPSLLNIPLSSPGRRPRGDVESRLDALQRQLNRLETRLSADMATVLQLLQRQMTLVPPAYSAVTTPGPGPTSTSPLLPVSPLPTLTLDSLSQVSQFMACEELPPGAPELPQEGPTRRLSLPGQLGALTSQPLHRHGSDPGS

Compound | hERG current change (%, negative = inhibition) at 10uM
COc1ccc(Cl)cc1NC(=S)Nc1ccc(Cl)cn1 | 10.1%
O=C(O)CC(c1cccc(Cl)c1)n1cccc1 (stereo not shown) | 7.07%
CCOC(=O)N1CCN(C(=O)NC2CCCCC2)CC1 | 16.2%
C[C@]12CCC3C(CCC4=C/C(=N/OCC(=O)NC(CCC(N)=O)C(=O)O)CC[C@@]43C)C1CCC2O (stereo partly shown) | 2.01%
COc1cc(CNCc2ccncc2)cc(Br)c1OCc1ccccc1F.Cl | -43.3%
COCCNC(=S)Nc1cccc2cnccc12 | -8.54%
Cc1ccc(-n2c(O)c(C=NCc3ccco3)c(=O)[nH]c2=S)cc1C | 8.53%
C=CCN1C(=O)C(Cc2ccc(OC)cc2)S/C1=N/N=C/c1ccco1 (stereo not shown) | -1.49%
COc1ccc(OC)c(S(=O)(=O)N2CCC(C(=O)NCc3cccnc3)CC2)c1 | 10.5%
N#CC1=C(N)N(c2ncn[nH]2)C2=C(C(=O)CCC2)C1c1ccc(F)cc1 (stereo not shown) | 12.3%
COc1ccccc1NC(=O)N1CCCC1C(=O)NCc1ccccc1F (stereo not shown) | 19.4%
Cc1ccc(S(=O)(=O)N/N=C\c2cc3c(cc2Br)OCO3)cc1 | 1.64%
COc1cc2c(C(=O)N3CCN(c4ccccc4C)CC3)c(C)oc2cc1Br | 7.54%
O=S(=O)(Nc1nc2ccccc2nc1Nc1ccc2c(c1)OCO2)c1ccc(F)cc1 | 24.5%
CCOC(=O)c1ccc(NC2=CC(=O)C(=O)c3ccccc32)cc1 | 7.2%
CCCS(=O)(=O)N1CCC(C(=O)NC2CCCCC2C)CC1 (stereo not shown) | 18.8%
O=c1c2[nH]c3cccc(Cl)c3c2ncn1Cc1ccco1 | 27.5%
CCOc1ccc(NC(=O)CCSc2ccc(C)cc2)cc1 | 8.63%
O=C(COc1ccc(N2CC(C(=O)O)CC2=O)cc1)Nc1cccc(C(F)(F)F)c1 (stereo not shown) | 21.2%
NC(=O)CC[C@H](NC(=O)OCc1ccccc1)C(=O)OCc1ccc(Cl)cc1 | 3.73%

Compound | hERG current change (%, negative = inhibition) at 10uM
O=C(N/N=C1\CCc2ccccc21)c1ccccc1O | -3.21%
CC(=O)Nc1ccc(/C(C)=N/NC(=O)c2ccc(COc3ccccc3Cl)o2)cc1 | 3.86%
COC(=O)C1=[N+]([O-])OC(C(=O)OC)C1c1c[nH]c2ccccc12 (stereo not shown) | -6.22%
CCC(C)NC(=O)c1c(C)cc(=O)oc1C (stereo not shown) | 8.31%
COC(=O)c1ccc([C@H]2C=C(C(=O)O)O[C@@H](OCc3ccc(CO)cc3)C2)cc1 | 13.6%
CC(C)Cc1[nH]c(=O)c(C#N)c2c1CCC2 | 8.97%
O=C(O)[C@H](Cc1c[nH]c2ccccc12)Nc1ncccc1[N+](=O)[O-] | 0.648%
CCC(C)(C)C1CCC(=NNc2nc3ccccc3[nH]2)CC1 (stereo not shown) | 2.49%
CCCOc1ccc(S(=O)(=O)N2CCOCC2)cc1[N+](=O)[O-] | -57.8%
Cc1nccn1C[C@@H]1CCc2c(c3ccccc3n2C)C1=O | -31.5%
Cc1cc(-n2nc(C)cc2C)n2nc(C)c(-c3ccccc3)c2n1 | 13.6%
CC(C)CC(=O)NC(c1ccccc1Cl)c1c(O)ccc2ccccc12 (stereo not shown) | -15.5%
CCOc1ccc(C(=O)c2nc3c(n2O)CCCCC3)cc1 | 13%
COc1ccccc1N/C(N)=N/c1nc(CSc2ccc(C)cc2)cc(=O)[nH]1 | 15.8%
O=C(Nc1cccc(-c2ccc(N3CCCCC3)nn2)c1)C(F)(F)F | -8.5%
Cc1ccc(N(C(C)C(=O)N2CCN(Cc3ccccc3)CC2)S(C)(=O)=O)cc1 (stereo not shown) | 2.78%
CCOc1ccc(NC(=O)CCN2CCN(S(=O)(=O)c3ccc(F)cc3)CC2)cc1 | -16.5%
COC(=O)C1=C(Nc2cc(Cl)cc(Cl)c2)CSC1 | 11.9%
CCCC(=O)N=c1sc2cccc(F)c2n1C | -13.8%
Cc1ccc(SCCNC(=O)C(C)C)cc1 | 5.58%

Compound | hERG current change (%, negative = inhibition) at 10uM
CC(Sc1nnc(N)s1)C(=O)NC1CCCCC1C (stereo not shown) | -5.59%
O=C(O)CCS(=O)(=O)c1cccc2cccnc12 | 11.7%
CCNC(=O)c1ccc(-n2nc(C)cc2-c2ccccc2)cc1 | 2.65%
CCOc1cccc(C(=O)Nc2cccc(-c3nnc(-c4ccc(C)cc4)o3)c2)c1 | 19.5%
CCOCCc1nnc(NC(=O)CN2C(=O)c3ccccc3C2=O)s1 | -14.5%
O=C(COC(=O)CCc1ccc(S(=O)(=O)N2CCOCC2)cc1)NC1CCCC1 | -4.09%
Cc1nn(C)cc1C(C)NC(=O)c1cc(COc2ccc(F)c(F)c2)on1 (stereo not shown) | -6.16%
CC(=O)c1cn(Cc2ccccc2C#N)c2ccccc12 | 25.3%
Cc1ccc(/C=N/n2nnnc2N)o1 | -7.92%
Cc1ccccc1NC(=O)N1c2ccccc2CC1C (stereo not shown) | 22.1%
Cc1ccc(C2=CC(C)(c3ccc(C)cc3)Nc3nc(C(F)(F)F)nn32)cc1 (stereo not shown) | 11.5%
COc1ccc(/C=N/NC(=O)CC(=O)NCc2cccnc2)c(OC)c1 | 4.71%
O=C(Nc1ccccc1C(=O)N1CCCC1)C1COc2ccccc2O1 (stereo not shown) | 9.02%
CCn1c(SCC(=O)Nc2cc(NC(C)=O)ccc2OC)nnc1-c1ccccn1 | 4.03%
O=C(CN1CCN(c2ccc([N+](=O)[O-])cc2)CC1)c1ccccc1 | -75%
COc1ccc(C(=O)OCC(=O)NC(C)CCc2ccccc2)c(OC)c1 (stereo not shown) | -15.1%
COc1ccc(C(C)=O)cc1COC(=O)CCCN1C(=O)c2ccccc2C1=O | -11.3%
COc1ccccc1CCNC(=O)c1ccc2nc[nH]c2c1 | 3.97%

Source: paper PMC4336329 (PLoS ONE, 2015)
